Residue numbers refer to the chain shown, from its start. Results are given in words; binding and its absence hold for the method and conditions named. For part of these data: Binding seen in cells or lysates may run through a third protein. Some entries that bind do so weakly or less than the wild type. For part of these data: Sequences can lack the tags named with a protein.
Tests used:
[1] = molecular target: T1, TLN161, N-terminal appended domain of hThrRS-L (Met1-Ile161), Gal4 DNA binding domain fusion (human) (UniProt A2RTX5); experiment: two-hybrid; TLN161 with pGADT7 constructs of MSC components in Y2HGold; data not shown
T1 sequence: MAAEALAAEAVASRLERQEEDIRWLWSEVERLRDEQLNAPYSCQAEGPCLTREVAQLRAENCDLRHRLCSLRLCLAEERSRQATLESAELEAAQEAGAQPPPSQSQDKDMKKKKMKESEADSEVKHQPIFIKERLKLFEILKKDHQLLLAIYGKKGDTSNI

Sequences of proteins named here, by UniProt entry; tags and fusion partners are left off. A change or cut given only in a name is not applied to a line headed by its entry.
UniProt Q9P2J5: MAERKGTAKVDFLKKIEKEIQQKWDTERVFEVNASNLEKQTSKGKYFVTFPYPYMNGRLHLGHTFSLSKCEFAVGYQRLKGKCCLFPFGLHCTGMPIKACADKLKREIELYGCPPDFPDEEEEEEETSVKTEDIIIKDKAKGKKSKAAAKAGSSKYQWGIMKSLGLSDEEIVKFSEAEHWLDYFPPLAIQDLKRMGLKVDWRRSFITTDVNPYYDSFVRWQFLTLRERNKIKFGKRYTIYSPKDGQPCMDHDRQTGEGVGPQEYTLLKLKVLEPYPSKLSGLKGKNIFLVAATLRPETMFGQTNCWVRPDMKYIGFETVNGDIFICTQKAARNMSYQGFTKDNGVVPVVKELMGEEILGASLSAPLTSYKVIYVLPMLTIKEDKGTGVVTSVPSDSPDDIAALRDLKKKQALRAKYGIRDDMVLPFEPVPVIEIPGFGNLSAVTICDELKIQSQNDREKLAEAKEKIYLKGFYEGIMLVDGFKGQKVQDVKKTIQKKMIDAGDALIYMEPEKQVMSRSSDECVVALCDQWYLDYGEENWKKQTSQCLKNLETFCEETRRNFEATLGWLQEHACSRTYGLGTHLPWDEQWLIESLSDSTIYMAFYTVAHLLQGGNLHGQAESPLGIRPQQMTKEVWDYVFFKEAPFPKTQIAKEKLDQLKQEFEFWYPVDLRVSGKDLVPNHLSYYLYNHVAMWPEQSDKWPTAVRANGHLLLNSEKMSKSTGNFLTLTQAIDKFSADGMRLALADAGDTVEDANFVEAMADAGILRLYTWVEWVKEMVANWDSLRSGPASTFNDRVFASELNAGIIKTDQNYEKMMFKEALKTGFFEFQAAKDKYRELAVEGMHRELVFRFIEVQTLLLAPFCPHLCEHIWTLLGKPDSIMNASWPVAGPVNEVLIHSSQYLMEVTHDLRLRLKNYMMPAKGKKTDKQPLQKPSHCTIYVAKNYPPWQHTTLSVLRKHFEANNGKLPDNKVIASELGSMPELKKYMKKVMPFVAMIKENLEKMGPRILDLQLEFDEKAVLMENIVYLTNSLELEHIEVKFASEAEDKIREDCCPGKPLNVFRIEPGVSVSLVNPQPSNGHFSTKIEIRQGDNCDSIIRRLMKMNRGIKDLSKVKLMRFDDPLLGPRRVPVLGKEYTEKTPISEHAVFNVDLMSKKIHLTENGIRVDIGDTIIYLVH

[2] = molecular target: T2, native hThrRS-L, endogenous in HEK293T (human (endogenous in HEK293T)) (UniProt A2RTX5); experiment: SEC; HEK293T whole cell lysate on Superose-6, 50 mM Tris-HCl pH 7.5, 50 mM NaCl, 1 mM PMSF, 1 mM DTT; fractions immunoblotted
T2 sequence: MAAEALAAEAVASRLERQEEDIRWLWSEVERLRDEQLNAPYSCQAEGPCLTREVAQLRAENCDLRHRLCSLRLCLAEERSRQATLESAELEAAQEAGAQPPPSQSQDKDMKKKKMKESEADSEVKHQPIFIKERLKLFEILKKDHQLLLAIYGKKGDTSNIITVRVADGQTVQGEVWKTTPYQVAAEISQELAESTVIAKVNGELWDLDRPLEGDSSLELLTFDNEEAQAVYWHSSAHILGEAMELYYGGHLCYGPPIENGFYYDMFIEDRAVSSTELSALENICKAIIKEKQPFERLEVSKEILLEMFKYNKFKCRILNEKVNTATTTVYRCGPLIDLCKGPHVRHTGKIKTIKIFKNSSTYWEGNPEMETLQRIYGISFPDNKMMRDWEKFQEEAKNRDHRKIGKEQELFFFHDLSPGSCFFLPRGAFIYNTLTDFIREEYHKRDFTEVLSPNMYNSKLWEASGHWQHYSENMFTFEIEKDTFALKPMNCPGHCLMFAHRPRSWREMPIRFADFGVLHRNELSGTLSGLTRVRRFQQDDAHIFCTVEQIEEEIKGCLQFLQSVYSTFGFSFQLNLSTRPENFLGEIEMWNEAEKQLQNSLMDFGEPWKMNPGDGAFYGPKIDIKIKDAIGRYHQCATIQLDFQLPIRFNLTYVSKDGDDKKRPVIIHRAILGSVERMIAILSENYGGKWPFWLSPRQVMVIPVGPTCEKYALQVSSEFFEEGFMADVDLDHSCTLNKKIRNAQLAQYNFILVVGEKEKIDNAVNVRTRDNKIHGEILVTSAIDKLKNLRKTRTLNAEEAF

[3] = molecular target: T3, C-terminal FLAG-tagged human threonyl-tRNA synthetase-like protein (hThrRS-L-FLAG) (human) (UniProt A2RTX5); experiment: co-IP; FLAG-tagged hThrRS-L or mutant overexpressed in HEK293T; IP with anti-FLAG, Dynabeads protein G, 4°C; endogenous partners detected by western blotting
T3 sequence: T2 sequence

[4] = molecular target: T4, hThrRS-L-Hb/A-FLAG (human) (UniProt A2RTX5); experiment: as above
T4 sequence: T2 sequence with L57A, L64A, L68A, L71A, L75A

[5] = molecular target: T5, hThrRS-L-Δ161-FLAG, hThrRS-L with TLN161 deleted, C-terminal FLAG tag (human) (UniProt A2RTX5); experiment: as above
T5 sequence: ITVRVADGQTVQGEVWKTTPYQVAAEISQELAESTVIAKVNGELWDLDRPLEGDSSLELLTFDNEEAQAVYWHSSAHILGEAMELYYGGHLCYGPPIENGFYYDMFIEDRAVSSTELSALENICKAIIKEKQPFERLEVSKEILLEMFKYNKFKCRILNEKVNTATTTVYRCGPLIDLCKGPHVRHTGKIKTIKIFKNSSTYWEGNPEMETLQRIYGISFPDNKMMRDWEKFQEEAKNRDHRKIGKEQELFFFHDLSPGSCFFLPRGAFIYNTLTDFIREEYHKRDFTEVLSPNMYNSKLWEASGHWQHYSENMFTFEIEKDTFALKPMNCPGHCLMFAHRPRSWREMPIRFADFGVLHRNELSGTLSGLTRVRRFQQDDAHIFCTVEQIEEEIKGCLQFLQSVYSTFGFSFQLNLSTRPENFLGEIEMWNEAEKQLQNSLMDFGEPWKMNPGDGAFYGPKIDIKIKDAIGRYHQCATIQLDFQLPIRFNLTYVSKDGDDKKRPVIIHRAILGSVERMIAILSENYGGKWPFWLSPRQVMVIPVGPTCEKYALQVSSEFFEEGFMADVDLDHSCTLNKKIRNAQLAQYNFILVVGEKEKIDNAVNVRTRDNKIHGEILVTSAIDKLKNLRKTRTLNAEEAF

[6] = molecular target: T6, hThrRS-L-Ha/A-FLAG (human) (UniProt A2RTX5); experiment: as above
T6 sequence: T2 sequence with L15A, I22A, L25A, V29A, L32A

| binding [1] | binding [2] | binding [3] | binding [4] | binding [5] | binding [6] | Substance |
| --- | --- | --- | --- | --- | --- | --- |
| binds weakly |  |  |  |  |  | C-terminal appended domain of human LeuRS (Gly1066-His1176), Gal4 activation domain fusion (from UniProt Q9P2J5 1066-1176) (domain or fragment) |
|  | binds | binds | no binding | no binding | no binding | LeuRS, endogenous in HEK293T (from UniProt Q9P2J5 1-1176) (enzyme) |

From publication PMC6794377
